Data taken from the supplement of paper PMC7826260.
The other results are listed elsewhere or left out. Viral Rep nickase domains cut single-stranded DNA in vitro (3 µM enzyme, 1 h, 37 °C); shown is the middle of each 90-letter strand. A value is the log2 ratio of uncut reads to the pool without enzyme; strong cutting gives strongly negative numbers. There is no active / inactive call. Because reads are shares of a total, they shift together; values above 0 arise when much of the pool is cut.

system: T1, Rep nickase domain of Muscovy duck circovirus; test: uncleaved DNA left, log2 of reads against the no-enzyme library (log2 ratio); higher = less cleavage (more negative = more Rep cleavage of the k-mer); sequences stand for … in CTCGTCCG…ACCGGAGA
T1 sequence (residues 1-111 of Rep, tag left off): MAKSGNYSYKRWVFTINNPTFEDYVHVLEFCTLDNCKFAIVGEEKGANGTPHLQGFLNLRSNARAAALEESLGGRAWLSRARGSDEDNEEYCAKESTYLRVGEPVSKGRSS
Protocol: (§1)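 A pool of 90-nt single-stranded DNAs with seven random bases just before the constant AC of the nick site (name = the seven bases) was cut by 3 µM recombinant His6-SUMO-tagged Rep nickase domain (300 nM DNA, 50 mM HEPES pH 8.0, 50 mM NaCl, 1 mM MnCl2, 1 h, 37 °C, three replicates). Uncut DNA was amplified and sequenced.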

| Sequence | uncleaved DNA left (log2) |
| --- | --- |
| ACCACAG | -0.0249 |
| GACTTAT | -0.538 |
| TGACCTT | 0.191 |
| GCTCACA | 0.0776 |
| AAACTCT | 0.0142 |
| ACAGAGT | 0.113 |
| CGTCTAG | 0.0119 |
| CGCCATT | -0.0421 |
| AAATGGG | 0.0784 |
| GATGGGC | 0.0803 |
| AGGATGC | -0.0254 |
| TGCTATG | 0.181 |
| CTTTGGA | 0.045 |
| GGTGTAA | 0.0705 |
| CCTTATT | -4 |
| GGCGATC | 0.0552 |
| TATATTC | -0.0456 |
| GGATACA | 0.0936 |
| GTACGCA | 0.0408 |
| AATCACA | 0.0929 |

| Sequence | uncleaved DNA left (log2) |
| --- | --- |
| CACAGTT | 0.0821 |
| GGTTTGG | 0.0957 |
| GTATGAA | 0.0737 |
| GGGCATC | -0.096 |
| AGTCATT | 0.025 |
| GGCCTGT | 0.0356 |
| TCTAAAC | 0.034 |
| AGGCAAG | -0.0951 |
| CTGTCAC | 0.00601 |
| TTGACCG | -0.0335 |
| CAAGCAC | 0.0169 |
| GACCCGC | 0.0449 |
| GTGTAGG | 0.068 |
| ATATAGG | 0.0737 |
| CGGCCGA | -0.0343 |
| AGGGGTG | 0.02 |
| TACGGCG | -0.0167 |
| TACATTC | 0.0567 |
| GACAGGT | 0.0872 |
| TATGTGG | 0.134 |

system: T2, Rep nickase domain of banana bunchy top virus; test: as above
T2 sequence (residues 1-94 of Rep, tag left off): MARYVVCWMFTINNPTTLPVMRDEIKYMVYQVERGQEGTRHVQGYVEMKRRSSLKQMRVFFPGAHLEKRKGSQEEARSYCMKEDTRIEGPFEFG
Protocol: as §1

| Sequence | uncleaved DNA left (log2) |
| --- | --- |
| ACCACAG | 0.042 |
| GACTTAT | -0.636 |
| TGACCTT | 0.236 |
| GCTCACA | 0.0603 |
| AAACTCT | -0.0989 |
| ACAGAGT | -0.0375 |
| CGTCTAG | 0.0372 |
| CGCCATT | -0.234 |
| AAATGGG | 0.00269 |
| GATGGGC | 0.0907 |
| AGGATGC | -0.0897 |
| TGCTATG | 0.0566 |
| CTTTGGA | -0.0223 |
| GGTGTAA | 0.138 |
| CCTTATT | -3.07 |
| GGCGATC | -0.0253 |
| TATATTC | -0.0161 |
| GGATACA | 0.0359 |
| GTACGCA | -0.00565 |
| AATCACA | 0.164 |

| Sequence | uncleaved DNA left (log2) |
| --- | --- |
| CACAGTT | -0.147 |
| GGTTTGG | 0.0431 |
| GTATGAA | 0.0347 |
| GGGCATC | 0.00356 |
| AGTCATT | -1.12 |
| GGCCTGT | 0.0984 |
| TCTAAAC | -0.018 |
| AGGCAAG | 0.024 |
| CTGTCAC | 0.0198 |
| TTGACCG | -0.0219 |
| CAAGCAC | 0.0158 |
| GACCCGC | 0.0449 |
| GTGTAGG | 0.0706 |
| ATATAGG | -0.0121 |
| CGGCCGA | 0.0915 |
| AGGGGTG | -0.116 |
| TACGGCG | -0.041 |
| TACATTC | 0.104 |
| GACAGGT | -0.0339 |
| TATGTGG | -0.00516 |

system: T3, Rep nickase domain of cabbage leaf curl virus; test: as above
T3 sequence (residues 1-116 of Rep, tag left off): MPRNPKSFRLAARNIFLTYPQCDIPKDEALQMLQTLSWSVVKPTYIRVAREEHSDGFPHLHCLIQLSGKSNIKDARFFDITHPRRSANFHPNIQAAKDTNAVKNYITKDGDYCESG
Protocol: as §1

| Sequence | uncleaved DNA left (log2) |
| --- | --- |
| ACCACAG | -0.427 |
| GACTTAT | 0.126 |
| TGACCTT | 0.363 |
| GCTCACA | 0.165 |
| AAACTCT | -1.58 |
| ACAGAGT | -0.377 |
| CGTCTAG | -0.386 |
| CGCCATT | -0.0248 |
| AAATGGG | -0.661 |
| GATGGGC | 0.599 |
| AGGATGC | -0.286 |
| TGCTATG | -0.118 |
| CTTTGGA | -0.268 |
| GGTGTAA | 0.567 |
| CCTTATT | -0.559 |
| GGCGATC | 0.359 |
| TATATTC | -0.00842 |
| GGATACA | 0.42 |
| GTACGCA | 0.0885 |
| AATCACA | -0.0692 |

| Sequence | uncleaved DNA left (log2) |
| --- | --- |
| CACAGTT | -0.493 |
| GGTTTGG | 0.183 |
| GTATGAA | 0.273 |
| GGGCATC | 0.86 |
| AGTCATT | 0.308 |
| GGCCTGT | 0.33 |
| TCTAAAC | 0.187 |
| AGGCAAG | -0.565 |
| CTGTCAC | -0.0431 |
| TTGACCG | -0.178 |
| CAAGCAC | -0.304 |
| GACCCGC | 0.597 |
| GTGTAGG | 0.398 |
| ATATAGG | 0.126 |
| CGGCCGA | -0.177 |
| AGGGGTG | -0.0917 |
| TACGGCG | -0.822 |
| TACATTC | -0.0657 |
| GACAGGT | 0.396 |
| TATGTGG | 0.0383 |
